In PubChem BioAssay AID1508642 (National Center for Advancing Translational Sciences (NCATS), 2021):
Among all 43,000 compounds or so, about 200 (0.47%) were called active. Roughly 12% stayed inconclusive and do not appear here. Calls follow the shape of the dose curve; as a rule, active = well fitted cell-killing curve with a large enough effect; inconclusive = small, poorly fitted or top-dose-only effect, or effect the other way; inactive = flat fitted curve, though single readings scatter. Some of the results follow.

Assay: Cell viability qHTS assay in S16 Pmp22-F2sN cells; also: nearly all actives have a fitted effect of over 65% in size
Details: S16 Pmp22-F2sN Schwann cells (luciferase reporters placed in the Pmp22 gene) viability, CellTiter-Glo, 24 h; series mostly up to 57.5 µM; activity change, negative = cytotoxicity: at the top concentration
Procedure, shortened: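 CellTiter-Glo counter-screen, qHTS, 1536-well. Cells: S16(c9) Pmp22-F2sN, 500-1,000/well in DMEM + 10% FBS. Cpd 23 nL pin transfer, 24 h, 37C/5% CO2. Read: luminescence, CCD imager.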
% is scaled to controls: 0 for no effect and ±100 for the full control effect.

SMILES | activity change, negative = cytotoxicity
COc1ccc(-c2nc3ccccc3o2)cc1NC(=O)C(C)Oc1ccc(Cl)cc1Cl (stereo not drawn) | inactive: 0.31%
CC(C)C12CN3CC(C(C)C)(CN(C1)C3c1ccc(Cl)cc1)C2=O (stereo not drawn) | inactive: 18.5%
CN1CCN(c2oc(-c3ccc(COc4ccc(Cl)cc4)o3)nc2C#N)CC1 | inactive: 2.74%
N#Cc1nc(-c2ccc(COc3ccccc3)o2)oc1NCc1ccccc1 | inactive: 1.94%
Cc1ccc(CNC(=O)CSc2nc(=O)[nH]c3c2CCCC3)cc1 | inactive: 2.09%
COCCc1nn2c(=O)cc(COC(=O)COc3ccc(F)cc3)nc2s1 | inactive: -10.4%
CCCOC(=O)c1c(NC(=O)C2c3ccccc3Oc3ccccc32)sc2c1CCC(C)C2 (stereo not drawn) | inactive: -1.89%
Cc1ccc2oc(-c3ccc(C)c(NC(=O)c4ccc(C(C)(C)C)cc4)c3)nc2c1 | inactive: 3.97%
COc1cccc(CNC(=O)c2nn(-c3ccccc3Cl)nc2CO)c1 | inactive: -18.2%
Cc1ccccc1C(=O)NCc1nc2cccnc2n1Cc1ccccc1 | inactive: 11.3%
COc1ccccc1C(=O)n1nc(-c2ccco2)nc1NCc1ccc(Cl)cc1 | inactive: 5.14%
COc1ccc(N2CCN(C(=O)c3ccc4c(c3)N(Cc3ccc(F)cc3)C(=O)c3ccccc3S4=O)CC2)cc1 (stereo not drawn) | inactive: 15.1%
COc1ccc(S(=O)(=O)c2c(Nc3ccc(F)cc3)sc(C(=O)c3ccc4c(c3)OCO4)c2N)cc1 | inactive: 1.81%
CCN1CCN(C(c2ccccc2)c2sc3nc(-c4ccco4)nn3c2O)CC1 (stereo not drawn) | inactive: 0.873%
CCOc1ccccc1C(=O)Oc1c(Sc2ccccc2)c(C)nn1C(C)(C)C | inactive: -7.18%
O=C(c1cnc(N2CCCCC2)c2ccccc12)N1CCN(c2ccccc2F)CC1 | inactive: 1.53%
CCCSc1oc(-c2cccs2)nc1S(=O)(=O)c1ccc(Cl)cc1 | inactive: -0.172%
Cc1ccc2c(c1)c1c(c(=O)n(Cc3ccccc3)c(=O)n1Cc1cccc(C(F)(F)F)c1)n2C | inactive: 1.68%
Cc1ccc(CNc2nc3ccccc3c3nc(-c4cccc(C)c4)nn23)cc1 | inactive: -1.36%
COc1ccc(Cn2c(CNS(=O)(=O)c3ccc4c(c3)CCCC4)nc3cccnc32)cc1 | inactive: -7.09%
CCOc1ccc(C(=O)NCCc2sc3nc(-c4ccc(Cl)cc4)nn3c2C)cc1OCC | inactive: -1.39%
O=C(NCCc1ccc(Cl)cc1)c1ccc(Cn2c(=O)c3cccn3c3cccnc32)cc1 | inactive: -8.34%
c1csc(C2=NC(c3ccncc3)=Nc3ccccc3N2)c1 | inactive: -4.09%
O=C(CSC1=Nc2ccccc2N=C(c2ccc(F)cc2)C1)NCc1ccccc1 | inactive: 20%
CC(=O)N1CCc2cc(CNS(=O)(=O)c3ccc(Br)s3)ccc21 | inactive: -0.138%

SMILES | activity change, negative = cytotoxicity
Cc1cc2oc(=O)c(CC(=O)O)c(C)c2c2occ(-c3ccc(F)cc3)c12 | inactive: 4.67%
Cc1ccc(N2CC(NC(=O)c3ccc(S(=O)(=O)N4CCOCC4)cc3)CC2=O)cc1C (stereo not drawn) | inactive: 8.13%
Cc1cccc(CNC(=O)C2CCN(c3nnc(-n4c(C)ccc4C)s3)CC2)c1 | inactive: 0.226%
COc1ccc(CCNC(=O)CCCn2c(=O)c3ccccc3n(Cc3ccc(F)cc3Cl)c2=O)cc1OC | inactive: -1.56%
O=C(c1ccc2c(c1)OCCO2)N(Cc1cccnc1)c1nc2c(F)cccc2s1 | inactive: -8.05%
Cc1cccc(-c2noc(CN(C(=O)c3ccccc3Cl)C(C)C)n2)c1 | inactive: -9.06%
CCCn1c2ccccc2c2cnn(CC(=O)N3CCC(C(=O)OCC)CC3)c(=O)c21 | inactive: 11.9%
Cc1ccc(CNc2nc3ccccc3n3c(C)nnc23)cc1 | inactive: -2.47%
O=C(Nc1cccc(NC(=O)c2ccc(Br)o2)c1)c1ccccc1 | inactive: -4.11%
COc1cccc(C2c3c(oc4ccc(C)cc4c3=O)C(=O)N2CCCN2CCOCC2)c1OC (stereo not drawn) | inactive: -8.93%
Cc1cccc(-c2noc(-c3cccnc3NCc3ccco3)n2)c1 | inactive: 12.1%
Cc1ccccc1-n1cc(-c2ccccc2)nc1SCC(=O)Nc1ccc(F)cc1 | inactive: 6.5%
COc1ccc(-n2c(=O)c3c4c(sc3n(Cc3cc(C)ccc3C)c2=O)CN(C(C)=O)CC4)c(OC)c1 | inactive: 22.7%
Cc1ccc(Sc2c(C)nn(C(=O)COc3ccc(F)cc3)c2C)cc1 | inactive: -3.53%
O=C(NCCN1CCN(c2ccccc2)CC1)Nc1ccccc1Br | inactive: 1.19%
CC(=O)N1CCCc2cc(S(=O)(=O)N(C)CC(=O)Nc3ccc(C)cc3C)ccc21 | inactive: -2.33%
Cc1noc(Cn2c(=O)c3ccccc3n(CC(=O)Nc3cccc(Cl)c3C)c2=O)n1 | inactive: -8.85%
CC(C)c1ccc(OCC(=O)Nc2c(Cl)ccc3nsnc23)cc1 | inactive: -13.7%
N#Cc1nc(/C=C/c2ccc(F)cc2)oc1N1CCN(c2ccccc2)CC1 | inactive: 1.6%
COc1cccc(C2CC(=O)Nc3c2c(=O)nc2c(C)cccn32)c1 (stereo not drawn) | inactive: -7.77%
COc1cccc(CNC(=O)CSc2nc3ccccc3nc2Cc2ccc(C)cc2)c1OC | inactive: 10.8%
CCOC(=O)CNC(=O)c1cc2c(=O)n3cccc(C)c3nc2s1 | inactive: -0.116%
Cc1ccc(NC(=O)CCNS(=O)(=O)c2ccc3c(c2)CCN3C(=O)C2CC2)c(Cl)c1 | inactive: -8.27%
CCCn1c2ccccc2c2cnn(CC(=O)NCCc3ccc(OCC)c(OCC)c3)c(=O)c21 | inactive: 1.75%
CCCCNC(=O)CCn1c(=O)c2cccn2c2ccc(F)cc21 | inactive: 0.181%

SMILES | activity change, negative = cytotoxicity
CCOc1ccccc1NC(=O)CSc1ncc(S(=O)(=O)c2ccc(C(C)(C)C)cc2)c(=O)[nH]1 | inactive: -2.06%
O=c1c2cc3c(cc2n(Cc2cccc(Cl)c2)c(=O)n1Cc1nc(-c2ccccc2)no1)OCO3 | inactive: 3.21%
COc1ccc(NC(=O)CCNS(=O)(=O)c2cccc3nonc23)c(OC)c1 | inactive: 12.5%
COc1ccc(Nc2ncc(C(=O)Nc3cc(Cl)c(OC)cc3OC)c3ccccc23)cc1 | inactive: 10.8%
CN(C)c1ccc(C(CNS(=O)(=O)c2ccc(F)cc2)N2CCCC2)cc1 (stereo not drawn) | inactive: 5.54%
O=C(Nc1ncc(Cc2ccc(Cl)cc2)s1)c1ccc2c(c1)CC(c1ccccc1)OC2=O (stereo not drawn) | inactive: 8.62%
COc1cccc(-n2c(-c3ccco3)nc3c(cnn3-c3ccc(C)cc3)c2=O)c1 | inactive: -16.4%
CCOc1ccc(NS(=O)(=O)c2ccc3[nH]cc(C(=O)NC4CCCC4)c(=O)c3c2)cc1 | inactive: 0.327%
CCOc1ccc(C(=O)c2cn(Cc3ccc(OC)cc3)c3cc(OC)c(OC)cc3c2=O)cc1 | inactive: 4.96%
Cc1noc(Cn2c(=O)c3ccccc3n(CC(=O)Nc3ccc(Cl)cc3)c2=O)n1 | inactive: 1.16%
O=C(Nc1cc(Cl)ccc1Cl)C1(c2cccs2)CCOCC1 | inactive: 22.8%
CCOc1ccc(NC(=O)CSc2ncc3c(n2)-c2cc(Cl)ccc2N(C)S3(=O)=O)cc1 | inactive: 0.845%
CC1=C(C(=O)NCc2ccc(C)cc2)C2(CCCCC2)OC1=O | inactive: 0.0011%
Cc1ccc2cccc(NC(=O)C(C)Oc3ccc(C)c(C)c3)c2n1 (stereo not drawn) | inactive: -0.447%
Cc1ccc(C)c(Cn2c(SCC(=O)N(C)Cc3ccccc3)nc3ccccc32)c1 | inactive: -26.9%
CN(C(=O)CSc1nc2ccc(NC(=O)CCc3ccccc3)cc2s1)c1ccccc1 | inactive: -12.5%
Cc1ccc(-c2nnc(Nc3ccc(S(N)(=O)=O)cc3)c3ccccc23)cc1S(=O)(=O)N1CCOCC1 | inactive: -16.5%
O=C(CSc1nc2ccccc2nc1Cc1ccc(Cl)cc1)N1CCN(c2ccccc2F)CC1 | inactive: -4.29%
COc1ccc(C(=O)Nc2ccc3oc(-c4ccc(OC)cc4)nc3c2)cc1 | inactive: 6.2%
CCOC(=O)c1ccc(NC(=O)C2CC(=O)N(c3ccc(C(C)C)cc3)C2)cc1 (stereo not drawn) | inactive: 25.7%
CCCC(=O)Nc1cc(-c2nc3cccnc3s2)ccc1C | inactive: -7.96%
CCc1cccc(NC(c2nnc(-c3ccccc3)o2)c2ccc(F)cc2Cl)c1 (stereo not drawn) | inactive: 1.47%
COc1ccc2c(c1)Cc1sc(NC(=O)c3cccc(F)c3)nc1-2 | inactive: -7.62%
Cc1cccc2c(=O)cc(CSc3ccccc3NC(=O)c3cccc(Br)c3)[nH]c12 | inactive: -4.34%
COc1ccc(NC(=O)CSc2nc3nc(C)cc(C)n3n2)cc1OC | inactive: 1.66%

SMILES | activity change, negative = cytotoxicity
O=C(CSc1ncc(CO)n1Cc1ccc(F)cc1)NCc1ccco1 | inactive: 15.5%
COc1cc(O)ccc1-c1nc2cc(C)ccn2c1Nc1ccccc1C | inactive: -0.438%
Cc1ccc(N2CC(C(=O)NCc3nnnn3-c3ccc(C)c(C)c3)CC2=O)cc1C (stereo not drawn) | inactive: 1.16%
COc1cc(C(=O)NCC(c2ccc3c(c2)OCO3)N2CCN(C)CC2)cc(OC)c1OC (stereo not drawn) | inactive: -3.61%
COc1cccc2c1cc1c(=O)n(CC(=O)NCc3ccc(N(C)C)cc3)nc(C)n12 | inactive: -2.08%
COc1cccc(NC(=O)c2sc3nc(C)c(C(=O)Nc4ccc(C)cc4C)c(-c4ccc(C)o4)c3c2N)c1 | inactive: 4.32%
CCC1CCCCN1CCCNC(=O)c1c(C)oc2ncn(CC(C)C)c(=O)c12 (stereo not drawn) | inactive: 3.28%
O=c1n(Cc2ccc(Cl)cc2)nc2n1-c1ccccc1OC2 | inactive: 21.3%
CCOc1ccccc1NC(=O)NCc1noc2ccc(C)cc12 | inactive: 1.31%
Cc1ccc(C)c(CSc2cn(CCNC(=O)c3cccs3)c3ccccc23)c1 | inactive: -1.39%
CCc1ccc(NS(=O)(=O)c2ccc(NC(=O)N3CCCC3)cc2)cc1 | inactive: -0.503%
Cc1ccc(CSc2nc3cc(C(=O)NC4CCCC4)ccc3c(=O)n2Cc2ccccc2)cc1 | inactive: 10.5%
CC(CNC(=O)c1csc2c1CCCCC2)c1ccccc1 (stereo not drawn) | inactive: -12.3%
O=C(Nc1cccc(O)c1)c1cc(-c2ccccc2F)no1 | inactive: 5.62%
CCc1ccc(NC(=O)Cn2nnc(C(=O)Nc3ccc(F)cc3)c2N)cc1 | inactive: -0.959%
Cc1ccc(NC(=O)CCc2c(C)nc3ncnn3c2C)cc1Cl | inactive: 6.19%
Cc1ccccc1NC(=O)Cn1nnc(C(=O)NCc2cccs2)c1N | inactive: -1.48%
COc1cc(NC(=O)c2cc(S(=O)(=O)N3CCC(C)CC3)cn2C)cc(OC)c1OC | inactive: -7.18%
CCOC(=O)C1CCCN(C(=O)Cn2ncc3c4ccccc4n(C)c3c2=O)C1 (stereo not drawn) | inactive: 9.21%
O=C(NCc1cccc(Cl)c1)c1ccc2c(Cl)c3c(nc2c1)CCCC3 | inactive: -2.08%
COc1cccc(NC(=O)Cn2c(=O)n(CCCCC(=O)NCc3ccc4c(c3)OCO4)c(=O)c3ccccc32)c1 | inactive: 13.4%
O=C(O)COc1ccccc1C1Nc2ccccc2-c2nnc(SCc3ccc(Cl)cc3)nc2O1 (stereo not drawn) | inactive: 6.66%
Cc1ccc(C)c(N2CCN(C(=O)C3CCC(CNS(=O)(=O)c4ccc(Br)s4)CC3)CC2)c1 (stereo not drawn) | inactive: -15.2%
